Sequences and labels used below:
B1: LINE1-mini (parent)
chain: GGCAGAGCUCAACACAGCGUGGCAAAGUGGCUGUGGCUAGACUGCC

The text below walks through data of the RNAGym collection of RNA variant scans (doi:10.7554/elife.90254).

Read counts are not given, so values of variants with three or more changes are uncertain.

The series covers variants of B1. The series is described as follows: self-cleavage, relative activity (ratio to wild type); higher = more cleavage; in vitro, sequencing; the parent is a self-cleaving ribozyme.
Regarding G7A G21U U28C, the self-cleavage turned out to be 0.05.
Regarding G7C C8A A12C C18A U34G, the self-cleavage worked out at 0.03.
In the case of G7A G22U G29A it was 0.09; in that of A6U G27U A39U G44U, 2.41; in that of G7C C13A G22A G33C, 0.09.
The same measure for G7A G17A G22A U32A G40U C42A: 0.05; for G7A A12C C42G: 0.02.
In the case of G7A C15U G17U C37U it was 0.6.
For the variant A6U G7U C18U A41G, the self-cleavage was 0.21.
In the case of G7C A14C C15G A24C C37A it was 0.02; in that of A6U U28C C46U, 0.86.
In the case of G7C C10A G17C A39G it was 0.01; in that of G7A C13U C15G A26U G44U, 0.3.
In the case of A6U G30C U32G it was 0.07; in that of G7C C13A C15A A16G C23A C45U, 0.33.
G7A A24C C46A: the self-cleavage was 0.07.
Turning to G7C A16C G17U A26G, the self-cleavage amounted to 0.58.
In the case of G7C A12G G27A it was 0.04; in that of G7A G17A C42G, 0.25.
The same measure for G7A C18G C42U: 0.13; for G7C A11G A12U U28A U34A: 0.01.
As for A6U U28G A41U C45G, the self-cleavage came out at 0.02.
In the case of G7A C10A G30A G35C it was 0.02; in that of A6U G22U A41G, 1.22; in that of G7A A11C C18U C31G U34A, 0.01.
Regarding G7A C8U U28C, the self-cleavage was determined as 0.14.
Take G7A C8A C15G G40U: the self-cleavage is 0.13.
For G7A C8U U9C A39C, the self-cleavage was found to be 0.96.
In the case of G7C C10U C15A it was 0.06; in that of G7A C37G A39C, 0.05.
For the variant G7A G21U U34G C46G, the self-cleavage was determined as 0.05.
Regarding G7C C8U G22A G27U G36A, the self-cleavage came out at 0.06.
On to G7C C18G A24G, for which the self-cleavage is 0.04.
The same measure for A6U U9A C37U: 0.05; for A6U G27A G36U: 0.03; for G7C C23A G40C U43G C45G: 0.03.
As to A6U U9C A26C, the self-cleavage turned out to be 0.03.
In the case of G7C A11G C13A A26G G36C it was 0.01.
Take G7A U20C G30U C46A: the self-cleavage was found to be 0.05.
The same measure for G7C C15U A26U U28A: 0.01; for G7C C13U G22A: 0.18.
In the case of G7A C13U C15A U20A G36A it was 0.03; in that of G7C A26G C37U C42U U43G, 0.06; in that of G7C C8U U28A C37U G40A U43G C46G, 0.06.
In the case of G7A A24U U38A it was 0.07; in that of A6U G22C G27C G44U C46U, 0.08; in that of G7A A24G C31G G33U, 0.12.
G7A G21C G22A C37U: the self-cleavage is 0.03.
In the case of G7C C15G C23U G44C it was 0.17.
The same measure for G7C A11C A14U A24U A26U C31G G40U: 0.01; for G7C C8A C15G A39C: 0.04; for G7A A16U U32C G36C A41C: 0.05.
Regarding G7A C31U G40A C46U, the self-cleavage was 0.04.
Take G7C C15U C46A: the self-cleavage came out at 0.03.
In the case of G7A G30A G33U it was 0.04; in that of G7A U34C A39G, 0.03; in that of G7C C13A G17A U32C C37U C42U, 0.03.
With A6U G7U G21A G33C, the self-cleavage was determined as 0.08.
Turning to G7C A26U U32G, the self-cleavage amounted to 0.02.
For G7A A16C G19A, the self-cleavage is 0.08.
The same measure for G7A A16C G19U: 0.1.
For G7A C10U C37U, the self-cleavage is 0.02.
G7C C8G G27C U34A: the self-cleavage came to 0.02.
The same measure for G7C C15G A41G: 0.02.
On to G7A C10A G29A U34A, for which the self-cleavage was 0.37.
In the case of G7A G17C C18A A25C G33C it was 0.01; in that of G7A G22U U43A, 0.11; in that of G7A A14U C23U, 0.02.
Take G7C A12U A14U G35U: the self-cleavage is 0.06.
Take A6U G19A C23A: the self-cleavage is 1.03.
In the case of G7A U9G C10A A14C C23A C45U it was 0.02; in that of G7C C15G G19A U28G C37A, 0.01; in that of G7C C18G A39G, 0.08.
As for G7C A24G A26U G33C C37G, the self-cleavage worked out at 0.3.
In the case of G7A C42G C46A it was 0.04; in that of G7A G36U A39U, 0.28; in that of G7C C13A G30C, 0.09.
The same measure for G7A U9C C13G G30C U32C: 0.02; for G7A C15A A24U A39C: 0.37.
For A6U U9G G29C G30A, the self-cleavage stood at 0.11.
The same measure for G7A U20G G29U: 0.07; for G7C C13A C15A: 0.05.
As for G7C C10G A11U C46G, the self-cleavage amounted to 0.01.
The same measure for G7A A16G C31U A39G: 0.02.
For A6U U9A G21U, the self-cleavage amounted to 0.05.
The same measure for G7A A12U G44A: 0.14; for A6U G27A U32G C45A: 0.11; for G7A A16U A39C: 0.09.
The same measure for A6U U9C G19A G29U: 0.16; for G7C C13G G33A: 0.01.
The same measure for G7C A26C U28C A39G C45A: 0.05; for A6U G17U U20C C37U: 0.04; for A6U G21C C23U A26G: 0.91.
With G7A G17U G19C C23G, the self-cleavage was 0.13.
Turning to G7C C18A G36A G44A, the self-cleavage amounted to 0.07.
Regarding G7C C18U C31A, the self-cleavage turned out to be 0.06.
Consider G7A C15G C23U U34C, for which the self-cleavage amounted to 0.15.
In the case of G7A G19U C23G G29C C45A it was 0.07.
G7A A14G A16C: the self-cleavage is 0.12.
In the case of G7C C13U C23A G36A it was 0.3.
In the case of A6U G29C G35C it was 0.05.
As to G7A A25C U43A, the self-cleavage was 0.08.
The same measure for G7C A11U G27A G29U: 0.
As to G7C C10U C13A A24G C37A C42G, the self-cleavage is 0.01.
The same measure for A6U G30U A41U C46U: 0.11; for G7C A16C U34G: 0.01.
The same measure for G7C C10G C18A C31U U32G: 0.01; for G7A C15U U34G: 0.21; for G7A C15A C23G G35A A39C G40C: 0.1.
In the case of G7C A12C G19A G21U C46U it was 0.01; in that of G7A G36A C42U, 0.24.
In the case of G7A C37A G44A, the self-cleavage came out at 0.07.
The same measure for G7A A14C A41G: 0.13.
The same measure for G7C A25G U38G: 0.02; for G7A G29A G40U: 0.86; for A6U G22U G30A G33C A41U C45A C46A: 0.05.
As to G7C A11U C15A, the self-cleavage came out at 0.02.
The same measure for A6U G7U A16C G21C G22C U38A: 0.03; for G7A G27A U28G G33A: 0.07; for G7A U32G G33C G35A: 0.12.
With G7A A11C A26U, the self-cleavage is 0.02.
The same measure for G7C A26C U28A: 0.03.
Turning to G7A A26G G29U G30A A41U, the self-cleavage amounted to 0.03.
Consider G7C A12U C18A U20C C23G, for which the self-cleavage worked out at 0.13.
The same measure for G7A U9G G29U: 0.06; for A6U U20C G21A G27U: 0.16; for G7A U20C A26C G40A: 0.
Regarding G7A A14U U20G, the self-cleavage amounted to 0.42.
The same measure for G7A A12C G17C G22U A24C U43C: 0.02; for G7C A12C G21U G35U: 0.1; for G7A C8A G17A G22A G33U: 0.24.
The same measure for G7C A11C G22A U38C: 0.02.
In the case of G7A C18A G22C it was 0.07; in that of G7A G19C G36A, 0.09.
On to G7A A25U U43C, for which the self-cleavage was 0.25.
G7A C10U G35A: the self-cleavage is 0.02.
In the case of G7A U38C G40A, the self-cleavage turned out to be 0.01.
G7C C18A A41U: the self-cleavage stood at 0.07.
As to A6U G30U G35A A41G G44C, the self-cleavage is 0.08.
In the case of A6U G27C U32A U43A C45A it was 0.05.
In the case of G7A U9C A12U G21A it was 0.04; in that of A6U U9A C10U A14G, 0.01.
For G7C A11C G17C U28A G36U, the self-cleavage amounted to 0.01.
The same measure for G7A U9G C15G A25C: 0.07.
In the case of G7C A25G U38G C42G it was 0; in that of A6U U9C C13G, 0.12; in that of G7C C8A G36C C46A, 0.19.
In the case of G7A C10U A12G G33C it was 0.01; in that of G7A U28G C37A G40C C45U, 0.06.
G7A C10G A12C U20C A24G A25U A39G C46A: the self-cleavage is 0.
On to G7C A12C A26C, for which the self-cleavage is 0.
In the case of G7A G29A U34A G35U it was 0.2; in that of G7A C8U C31U U32G G35C, 0.07.
The same measure for G7A A12U A26U: 0.27; for G7A G21U C23G U28G G29U: 0.04; for G7A C10A A14G C31U G33U C42U: 0.08.
Turning to G7C C8U U43C, the self-cleavage amounted to 0.15.
Take G7A C13U G36C C46G: the self-cleavage turned out to be 0.27.
As to A6U U9G A25G U34A A41U G44U C45G, the self-cleavage turned out to be 0.22.
In the case of G7C A26G C37A C45U it was 0.07.
In the case of G7A U9C G44A it was 0.01; in that of G7C C15U A24U C31A, 0.32.
In the case of G7A G21U G40U, the self-cleavage amounted to 0.33.
Consider G7A G17U G21A C23G, for which the self-cleavage came to 0.25.
Turning to G7A C15U U20A U34G, the self-cleavage amounted to 0.52.
In the case of A6U G19C U34A A41U it was 0.08; in that of G7C C8G A12G C37A, 0.1.
